Measured values taken from PubChem BioAssay AID1508642 (National Center for Advancing Translational Sciences (NCATS), 2021).
Among all 43,000 compounds or so, about 200 (0.47%) were called active. Another 12% or so got no clear call; they are omitted. Calls follow the shape of the dose curve; as a rule, active = well fitted cell-killing curve with a large enough effect; inconclusive = small, poorly fitted or top-dose-only effect, or effect the other way; inactive = flat fitted curve, though single readings scatter. Some of the results follow.

Assay: Cell viability qHTS assay in S16 Pmp22-F2sN cells; also: nearly all actives have a fitted effect of over 65% in size
Conditions: S16 Pmp22-F2sN Schwann cells viability, CellTiter-Glo, 24 h; series mostly up to 57.5 µM; activity change, negative = cytotoxicity: at the top concentration
How it was run: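 Used to flag compounds lowering reporter output through toxicity, this quantitative HTS measures ATP-based CellTiter-Glo luminescence in S16 Pmp22-F2sN Schwann cells after 24 h compound exposure at 37C.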
% is scaled to controls: 0 for no effect and ±100 for the full control effect; potency is read from the fitted curve at half-maximal effect.

SMILES	activity change, negative = cytotoxicity	Potency
Cc1ccc(-c2nonc2NC(=O)c2ccc(F)cc2)cc1C	inactive: -15.9%	
Cc1cccc(NC(=O)CSc2c(C)cnc3c2c(=O)n(C)c(=O)n3C)c1C	inactive: 7.42%	
Cc1cc(C)cc(NC(=O)C2CCCN(C(=O)c3cnn(-c4ccccc4)c3-n3cccc3)C2)c1 (stereo not drawn)	inactive: -3.08%	
O=C(CSc1nc2c([nH]c3ccccc32)c(=O)n1-c1ccc(Cl)cc1)N1CCOCC1	inactive: 1.65%	
CCC1CCCCN1CC(=O)Nc1cc(C)c2c(=O)oc3ccccc3c2n1 (stereo not drawn)	inactive: 7.52%	
CCCOc1ccc(C(=O)N(Cc2ccc(N(C)C)cc2)CC2CCCO2)cc1 (stereo not drawn)	inactive: -7.73%	
CC1=C(C(=O)Nc2ccccc2)C(CC(C)C)n2nc(SCc3ccccc3C)nc2N1 (stereo not drawn)	inactive: 1.6%	
O=C(c1cc2c(s1)-c1ccccc1OC2)N1CCN(c2ccccc2)CC1	inactive: 4.03%	
CCc1nn(C(CC)C(=O)NCc2ccc(F)cc2)c(=O)c2cc3occc3n12 (stereo not drawn)	inactive: -3.46%	
COc1cc(C(=O)NCC(c2ccco2)S(=O)(=O)c2ccccc2)cc(OC)c1OC (stereo not drawn)	inactive: -1.44%	
CC(=O)Nc1ccccc1-c1nc2ccccc2n(Cc2cccc(Br)c2)c1=O	inactive: 6.54%	
CCOc1ccccc1NC(=O)Cn1c(=O)n(Cc2ccccc2)c(=O)c2cccnc21	inactive: -14.2%	
Cc1cc(C)c(NC(=O)Cn2nnc(-c3ccccc3)n2)c(C)c1	inactive: -0.754%	
CCOC(=O)C(C)NC(=O)C1CCN(c2ncnc3c2nc2n3CCCCC2)CC1 (stereo not drawn)	inactive: 1.03%	
CC1CCC(NC(=O)c2cc3c(Cl)nc4ccccc4c3s2)CC1 (stereo not drawn)	inactive: -3.5%	
CCc1nnc(NC(=O)C(=O)c2cc(C)n(-c3ccccc3)c2C)s1	inactive: -15.4%	
CC(C)N(Cc1ccccc1)C(=O)Cn1ncc2c([nH]c3ccccc32)c1=O	inactive: -1.94%	
O=C(CN1CCCN(Cc2ccccc2Cl)S1(=O)=O)NCc1ccccc1	inactive: 1%	
COc1ccc(NC(=O)CCS(=O)(=O)c2ccc3nc(C)sc3c2)cc1Cl	inactive: -5.54%	
Cc1ccc(-n2ncc(C(=O)NCCc3c[nH]c4ccccc34)c2C2CCN(C(=O)OC(C)(C)C)CC2)cc1C	inactive: -3.09%	
COc1ccc(NC(=O)C(Cc2ccccc2)n2cccc2)cc1OC (stereo not drawn)	inactive: -11.8%	
COc1cc(-c2noc(CCC(=O)Nc3cc(C)ccc3C)n2)cc(OC)c1OC	inactive: -4.38%	
Cc1ccccc1Cn1c2ccccc2c2cnn(CC(=O)NCCc3ccccc3)c(=O)c21	inactive: 7.72%	
O=C(Cn1c(-c2cccs2)cc2cc(Cl)ccc21)N1CCN(c2ccccc2F)CC1	inactive: -4.05%	
CC(NC(=O)CN(c1ccc(Cl)cc1Cl)S(=O)(=O)c1ccccc1)c1ccccc1 (stereo not drawn)	inactive: -5.91%	

SMILES	activity change, negative = cytotoxicity	Potency
COc1ccc(C(=O)c2oc3ccccc3c2NC(=O)COc2cccc(C)c2C)cc1	inactive: -1.8%	
CCC(=O)Nc1ccc(CC)cc1-c1nc2ccccc2n(Cc2ccccc2)c1=O	inactive: 0.56%	
Cc1ccc(OC(=O)CSc2nnc(-c3cccs3)o2)cc1	inactive: 16.5%	
Cc1ccccc1C(=O)N(Cc1nc(-c2ccc(Cl)cc2)no1)C(C)C	inactive: -14.6%	
CCn1c(=O)c2sccc2n2c(CCC(=O)N3CCN(c4ccc(C(C)=O)cc4)CC3)nnc12	inactive: 10.9%	
Cc1ccc(C(=O)Nc2nnc(S(=O)(=O)N3c4ccccc4CC3C)s2)cc1 (stereo not drawn)	inactive: 7.9%	
CCOC(=O)c1ccc(NC(=O)c2c(NCc3cccs3)sc3c2CCCC3)cc1	inactive: -27%	
Cn1c(=O)n(C)c2cc(N3CCOCC3)c(NC(=O)c3ccccc3Br)cc21	inactive: -4.92%	
COc1ccc(OC(=O)c2nc(SCc3ccc(F)cc3)ncc2Cl)cc1	inactive: 10.9%	
Cc1ccc(C2=NN(CC(=O)NCCC(C)C)C(=O)CC2)cc1	inactive: 17.7%	
CCOC(=O)c1cc(OC(=O)c2ccc(C)cc2)n(-c2ccccc2)n1	inactive: -2.34%	
COc1cccc(-c2nnc(-c3ccccc3NC(=O)c3cccc(C(F)(F)F)c3)o2)c1	inactive: 1.08%	
COc1ccc(CNC(=O)CN2C(=O)CSc3ccc(S(=O)(=O)N4CCOCC4)cc32)c(OC)c1	inactive: -1.36%	
COc1cccc(CNC(=O)c2cc(S(=O)(=O)N3CCCCC3)cn2C)c1	inactive: -4.46%	
CCOc1ccc(CNC(=O)c2ccc3nc(C(C)C)oc3c2)cc1	inactive: -1.62%	
COC(=O)c1ccc(NC(=O)NCCn2nnc3cc(S(=O)(=O)N(C)C)ccc32)cc1	inactive: -23.4%	
COc1ccc(Nc2cc(C(=O)NC3CCC(C)CC3)c3ccccc3n2)cc1OC (stereo not drawn)	inactive: 14.4%	
Cc1c(C(=O)N2CCCCCC2)c(S(=O)(=O)NCc2ccc(Br)cc2)c(C)n1C	inactive: -4.5%	
Cc1ccc(-c2nc3ccccn3c2Nc2ccccc2C)s1	inactive: -1.48%	
Cc1oc2ncnc(N3CCOCC3)c2c1C(=O)N(Cc1ccccc1)C(C)C	inactive: 2.2%	
COc1ccc(S(=O)(=O)NCC(c2ccco2)S(=O)(=O)c2cccs2)cc1C (stereo not drawn)		active: 22.4 µM
Cn1c(=O)c(=O)n(C)c2cc(S(=O)(=O)CCC(=O)Nc3ccc(F)cc3)ccc21	inactive: 0.567%	
Cc1ccc(-c2nnn3c2nc(NCCc2ccc(Cl)cc2)c2ccccc23)cc1	inactive: 18%	
CCN(C(=O)c1coc(=O)c2ccccc12)c1ccccc1C	inactive: 15.3%	
CC(C)c1ccc(C(=O)Nc2cc(-c3ccccc3F)nn2-c2ccccc2)cc1	inactive: -5.9%	

SMILES	activity change, negative = cytotoxicity	Potency
CCCOc1ccc(CNC(=O)Cn2ncn3c(cc4sc(CC)cc43)c2=O)cc1	inactive: 13.4%	
Cc1ccccc1Nc1ncnc2c1cnn2C	inactive: -17.1%	
CCCCN(CC)CCNC(=O)c1cc2c(=O)[nH]c3ccccc3c2n1C	inactive: 14.1%	
Cc1ccccc1OCC(=O)Nc1ccc(-c2nc3ncccc3o2)cc1	inactive: -1.1%	
CCOc1ccc(CNCc2c(C(=O)O)n(Cc3ccc(C)cc3)c3cc(C)ccc23)cc1	inactive: -2.63%	
Cc1c(Cl)cccc1NC(=O)CN(CCc1ccccc1)S(=O)(=O)c1ccccc1	inactive: -1.29%	
CCCc1nc2ccccc2n2c(-c3ccccc3)c3c(=O)n(C)c(=O)n(C)c3c12	inactive: 8.55%	
O=C(NCc1ccc(F)cc1)c1ccc2c(O)c(S(=O)(=O)c3ccccc3)c(=O)[nH]c2c1	inactive: 0.886%	
CCCCn1c(NCc2ccc(OC)cc2O)nc2ccccc21	inactive: -0.781%	
Cc1ccccc1NS(=O)(=O)c1ccc2[nH]cc(C(=O)N3CCCCC3)c(=O)c2c1	inactive: 2.61%	
COc1ccc(C)cc1-n1nnc(-c2nc(-c3ccccc3Cl)no2)c1N	inactive: -22.2%	
CCCCn1nc(NC(=O)c2cccc(Cl)c2)c2cc3ccccc3nc21	inactive: 12.2%	
COc1ccc(N2CC(NC(=O)CCCc3ccccc3)CC2=O)cc1 (stereo not drawn)	inactive: -11.6%	
COC(=O)c1ccccc1NC(=O)Nc1nnc(N2CCC(C)CC2)s1	inactive: -1%	
CCOc1cc(CNC(=O)NC2COc3ccc(OC)cc3C2)cc(OCC)c1OCC (stereo not drawn)	inactive: 4.07%	
Cc1ccc(C(=O)Nc2ccc(-c3nc4ccccc4s3)cc2C)cc1C	inactive: -4.35%	
Cc1csc2nc(COc3ccccc3NC(=O)c3ccc(C(C)(C)C)cc3)cc(=O)n12	inactive: 24.1%	
CCNC(=O)c1nn(-c2ccccc2C)nc1CO	inactive: -3.84%	
Cc1cccc(CNC(=O)CCCn2c(=O)c3cccn3c3ccc(F)cc32)c1	inactive: -13.3%	
Cc1cccc2c1-c1sc(C(=O)N(C)c3cccc(C(F)(F)F)c3)cc1CO2	inactive: -14%	
Cc1ccccc1OC(=O)CSc1nnc(-c2ccc(F)cc2)o1	inactive: 8.48%	
Cc1c(NC(=O)c2nc3ccccc3nc2N2CCCCC2)cccc1[N+](=O)[O-]	inactive: 0.16%	
O=C(Cn1c(=O)n(-c2ccccc2Cl)c(=O)c2sc3ccccc3c21)NC1CCCCC1	inactive: 3.5%	
Cc1ccc(CN2CCN(CC(=O)Nc3ccc(C)c(C)c3)S2(=O)=O)cc1	inactive: -0.136%	
Cc1ccccc1-n1nc(CO)c(C(=O)NCc2cccs2)n1	inactive: 3.57%	

SMILES	activity change, negative = cytotoxicity	Potency
N#Cc1cccc(NC(=O)C2CCN(S(=O)(=O)c3ccc4[nH]c(=O)ccc4c3)CC2)c1	inactive: 4.26%	
CCOC(=O)C1CCN(C(=O)c2ccc3c(=O)n4nc(Nc5cc(C)ccc5C)sc4nc3c2)CC1	inactive: -0.241%	
Cc1ccc(CNC(=O)c2cc3c(=O)n(Cc4cccnc4)ccc3nc2C)cc1	inactive: 4.82%	
CCOc1cccc(C2c3c(-c4cc(C)ccc4O)n[nH]c3C(=O)N2Cc2ccco2)c1 (stereo not drawn)	inactive: -23.2%	
COc1ccc(OC)c(CCNC(=O)c2csc3c2CCCCC3)c1	inactive: -15.1%	
Cc1ccc(-c2cc(C(F)(F)F)c(C#N)c(SCC(=O)Nc3ccccc3)n2)cc1	inactive: 3.62%	
Cc1cccc(C)c1OCc1nc2c3c(-c4ccccc4)c(-c4ccccc4)oc3ncn2n1	inactive: 1.67%	
COc1cccc(NC(=O)C2CCN(c3nn4cc(-c5ccc(F)cc5)nc4s3)CC2)c1	inactive: 2.8%	
CCn1cc(C(=O)N2CCN(c3ccc(C(C)=O)cc3)CC2)c2cc(OC)c(OC)cc2c1=O	inactive: 11.3%	
Cc1ccc(NC(=O)Cn2c(=O)oc3cc(S(=O)(=O)NCc4ccccc4)ccc32)cc1	inactive: -3.42%	
CCOc1ccc(CCNC(=O)CN2N=C(c3ccccc3)CCC2=O)cc1OCC	inactive: 3.25%	
Cc1ccc2nc(N(Cc3cccnc3)C(=O)CCS(=O)(=O)c3ccccc3)sc2c1		active: 17.8 µM
CC(=O)c1ccc(NC(=O)CSc2nc(-c3cccc(F)c3)nc3c2c(=O)n(C)c(=O)n3C)cc1	inactive: -14.9%	
COc1ccc(CNC(=O)c2ccc3c(c2)nc2n3CCOC2)c(OC)c1	inactive: 6.18%	
Cc1ccc(CN(Cc2ccco2)C(=O)COc2ccc(C(C)C)cc2)cc1	inactive: -3.23%	
CN1C(C(=O)Nc2ccc(F)cc2F)=CC(c2ccc3c(c2)OCO3)=NS1(=O)=O	inactive: 9.44%	
Cc1cc(C)cc(NC(=O)CN2C(=O)c3ccccc3Sc3ncccc32)c1	inactive: 3.45%	
CCCCN(CC)CCCNC(=O)c1cc2c(=O)[nH]c3ccccc3c2s1	inactive: 3.46%	
Cc1ccc2c(c1)C(c1ccc(F)cc1)N(C(=O)c1ccc(OC(C)C)cc1)CC(=O)N2 (stereo not drawn)	inactive: -2.41%	
Cc1ccccc1C(=O)Nc1cc(-c2ccc(Cl)cc2)nn1-c1ccccc1	inactive: 2.36%	
Cc1ccc(-n2nnc(C(=O)Nc3cc(F)ccc3F)c2C)cc1F	inactive: 7.84%	
COc1ccccc1NC(=O)c1sc2nc3c(cc2c1N)CCCCCC3	inactive: 11.8%	
O=C(c1ccccc1)N1c2ncnn2C2(CCCCC2)[C@@H]2CCCC[C@@H]21	inactive: -4.03%	
